Source: PubChem BioAssay AID938 (National Center for Advancing Translational Sciences (NCATS), 2007)
Out of some 73,000 compounds screened, about 1,800 (2.5%) were called active. Another 13% or so got no clear call; they are omitted. Calls come from the whole dose curve; as a rule, active = well fitted activation curve with a large enough effect; inconclusive = small, poorly fitted or top-dose-only effect; inactive = no such curve, though single readings can be large or run the other way. The list shows a part of the results, in another mix than the full data.

Experiment: qHTS Assay for Agonists of the Thyroid Stimulating Hormone Receptor: Activators of Intracellular cAMP Concentrations in Parental HEK 293; note: nearly all actives have a fitted effect of over 55% in size; for activation: % of control where 0% means no effect
Conditions: parental HEK293 CNG cAMP sensor, membrane potential fluorescence; series mostly up to 57.1 µM; activation: at the top concentration
From the text: NIH Chemical Genomics Center [NCGC]
NIH Molecular Libraries Screening Centers Network [MLSCN]
PI Name: Dr. Marvin Gershengorn
This cell based assay utilized a cyclic nucleotide gated ion channel (CNG) as a biosensor for cAMP induction. HEK 293 cells stably expressing the modified CNG were purchased from BD biosciences (http://www.atto.com/products/actone/features_benefits.shtml) . Stimulation of cAMP production causes the CNG to open and subsequent membrane depolarization to occur. A fluorescent membrane potential dye (BD biosciences) was utilized to detect cAMP stimulation in cells.
The cells were maintained in DMEM medium (Invitrogen) containing 10 % FBS (Hyclone), 100 units/ml Penicillin, 100 ug/ml Streptomycin (Invitrogen), and 250 ug/ml Geneticin (Invitrogen) and 1 ug/ml Puromycin (Invitrogen) at 37C in 5% CO2. This assay was used as a counterscreen to "qHTS Assay for Agonists of the Thyroid Stimulating Hormone Receptor", to control for compounds signaling through endogenous receptors and other targets of HEK 293 cells.
NCGC Assay Protocol Summary:
High Throughput Screening. Freshly passaged cells were dispensed into 1536-well assay plates at 4 ul/well in DMEM containing phenol red (Invitrogen), 10% FCS (Hyclone), and 100 units/ml Penicillin, 100 ug/ml Streptomycin (Invitrogen) and incubated at 37 C with 5% CO2 for 20 to 36 hrs before the robotic screening. The screen was initiated by addition of 4 ul/well membrane potential dye containing 100 uM RO 20-1724 (Sigma Aldrich), followed by 60 min incubation at room temperature to allow for dye equilibration across the cell membrane. 23 nl/well compound or control was then added to the assay plates, which were incubated for additional 30 min before reading a Envision fluorescence plate reader (Perkin Elmer) in bottom-read mode for fluorescence intensity (emission at 590 nm).
Keywords: cAMP, CNG Ion Channel, quantitative high throughput screening, qHTS, HTS, probe identification, CNG, cAMP, cyclic nucleotide gated ion channel PubChem
Potency is the fitted concentration of half-maximal effect.

SMILES | Potency | activation
COc1ccccc1-c1noc(-c2ccccc2C(=O)Nc2ccccc2)n1 | active: 25.1 µM | –
C=C(C)C(=O)OCC(C)C | – | inactive: -3.74%
COc1cc(N)c(Cl)cc1C(=O)N[C@H]1CCN(CCCOc2ccc(F)cc2)C[C@H]1OC | – | inactive: -1.08% [at 25.6 µM]
COc1ccc(C)cc1NC(=O)COCC(=O)O | – | inactive: 20.5%
CCCCOC(=O)CNc1nnc(SCC(=O)OCC)[nH]c1=O | – | inactive: -43%
N#Cc1c2c(c(NCCCN3CCOCC3)n3c1nc1ccccc13)CCC2 | – | inactive: -54%
Nc1ccc(Cl)cc1Cl | – | inactive: -29.4%
CC(C)(C)CC(C)(C)c1ccc(OCCOCC[N+](C)(C)Cc2ccccc2)cc1 | – | inactive: 18.6%
COC(=O)CC1Oc2ccccc2N(Cc2ccccc2)C1=O (configuration not stated) | – | inactive: -57.3%
COc1cccc(Cn2c(=O)c(-c3cccc(C#N)c3)nc3cnc(N4CCN(C)CC4)nc32)c1 | – | inactive: -78.4%
O=C(c1cc(C2CC2)on1)N1CCN(c2ccc(F)cc2)CC1 | – | inactive: 15.3%
Cc1oc2c(O)c(O)ccc2c(=O)c1-c1cnn(-c2ccccc2)c1 | – | inactive: -32.1%
COC(=O)CCN(C(C)=O)c1ccc(N)cc1 | – | inactive: -67%
CCc1c(C#N)c(SCc2c(C)noc2C)nc2c1C(=O)CC(C)(C)C2 | active: 12.6 µM | –
NC(=O)c1ccccc1 | inactive | –
Cc1cc(-c2nnc3n2N=C(c2ccc(-c4ccccc4)cc2)CS3)n[nH]1 | active: 31.6 µM | –

SMILES | Potency | activation
CCCCc1oc2ccccc2c1C(=O)c1cc(I)c(OCCN(CC)CC)c(I)c1 | – | inactive: 0.716% [at 25.6 µM]
CCCCc1c2ccccc2nc2[nH]c3ccccc3c12 | active: 12.6 µM | –
COc1ccc(C)cc1S(=O)(=O)N(CC(=O)O)c1ccccc1 | – | inactive: -37.2%
O=C(O)c1cc2cc(F)ccc2[nH]1 | – | inactive: 24.1%
CC(=O)N[C@H](c1ccccc1)[C@@]1(C)C[C@@H]1[C@@H](C)C(=O)Nc1ccc2ccccc2c1 | – | inactive: -2.97%
O=C(/C=N/O)NCC1CCNCC1 | – | inactive: -60.2%
c1cc2c(cc1Nc1nc(-c3ccc4c(c3)OCO4)cs1)OCCO2 | – | inactive: -32.2%
Cc1ccc(-c2cc(C(=O)N3CCCC3)no2)cc1 | – | inactive: -44.4%
CC(/C=C/C=C(C)/C=C/C(=O)O)=C\C=C\C=C(C)\C=C\C=C(C)\C=C\C(=O)O | – | inactive: 31.1%
OCCN1CCN(C(=S)c2ccc(Cl)c(Cl)c2)CC1 | – | inactive: -60%
CCS(=O)(=O)N1CCC(C(=O)NCCN2CCN(Cc3ccccc3)CC2)CC1 | – | inactive: -2.5%
CCOC(=O)c1c(-c2ccccc2)c(C(C)=O)c(=O)n(C)c1C | – | inactive: 9.96%
O=C(O)CC1C(=O)NCCN1Cc1ccc(F)c(F)c1 (configuration not stated) | – | inactive: 4.57%
O=c1oc2ccc(Br)cc2cc1-c1nc2ccccc2o1 | – | inactive: -46.4%
CN(C)CC[C@@H](c1ccccc1)c1ccccn1 | – | inactive: 3.55% [at 25.6 µM]
CC(C)OC(=O)CSc1nc2cccnc2n1C1CCCCC1 | active: 15.8 µM | –
